This passage reports binding signal results from publication PMC7819943, “Rice protein-binding microarrays: a tool to detect cis-acting elements near promoter regions in rice”.

The other results are listed elsewhere or left out.

For this test, the target named is T1, OsWOX13 (Oryza sativa, UniProt Q5QMM3 1-267).
T1 sequence: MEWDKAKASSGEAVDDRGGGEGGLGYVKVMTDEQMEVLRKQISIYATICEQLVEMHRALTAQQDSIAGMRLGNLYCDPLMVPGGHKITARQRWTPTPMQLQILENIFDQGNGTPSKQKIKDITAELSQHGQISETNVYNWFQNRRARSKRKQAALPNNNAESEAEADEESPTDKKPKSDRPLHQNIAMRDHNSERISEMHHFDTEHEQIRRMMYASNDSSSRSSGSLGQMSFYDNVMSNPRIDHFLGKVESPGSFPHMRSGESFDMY
Put plainly: protein-binding microarray (RPBM); PBS, 2% BSA, 51.3 ng/ul salmon testes DNA, 50 uM zinc acetate, 200 nM TF, 25 C, 1 h; high values mean tight binding. The note with it: protein: recombinant; tags: N-terminal polyhistidine and DsRed monomer fusion (pET32a); label: CyDye5-dUTP incorporated in the synthesized complementary strand; 3' TTTTT single-stranded linker to array surface; dsDNA, one strand shown. The gist of the method:
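Binding signal is reported as fluorescence intensity per feature (arbitrary units) from an Axon 4000B scanner. Incubation used 200 nM of each Ni–NTA-purified, N-terminally polyhistidine- and DsRed-fused transcription factor from E. coli BL21-CodonPlus on a double-stranded custom Agilent array for 1 h at 25 °C, with 50 µM zinc acetate in the buffer, followed by washing.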
As for “AATTAATTTGTTCCTTTCGTCAGGGCTTGAGTCATGGAGTCGGAGTCACCTAGTGCAG”, the binding signal was 22600 fluorescence intensity (a.u.).

Turning to “GACTAAATTGCCCCTGAAGCATTTTCATCTCTACTCCTCCCGGAGTCACCTAGTGCAG”, the binding signal was 14600 fluorescence intensity (a.u.).

“ATGCAAATTTAAATTCAACTTCTACTTCTCACAACGAAAACGGAGTCACCTAGTGCAG”: the binding signal was 5600 fluorescence intensity (a.u.).

On to “CATACTGACCAAGTTTTGACAGAATGACAGGTGGGGCCCACGGAGTCACCTAGTGCAG”, for which the binding signal is 4310 fluorescence intensity (a.u.).

For “CAGATGTAATTTATAGTTAATGTTTTGAAAGTTTAACGATCGGAGTCACCTAGTGCAG”, the binding signal was 24200 fluorescence intensity (a.u.).

With “TAATAATTGCTAGTGGGTAATGATGTGACACACTTGCATGCGGAGTCACCTAGTGCAG”, the binding signal is 28700 fluorescence intensity (a.u.).

With “TTCAAATTTAATGCAAAGATTAAGTTGATGAGAAACGACGCGGAGTCACCTAGTGCAG”, the binding signal was 6640 fluorescence intensity (a.u.).

For “TCCCATAAATAAATTAACGGAGAGAGCGGAGCGAACGCAGCGGAGTCACCTAGTGCAG”, the binding signal was 3640 fluorescence intensity (a.u.).

For the sequence “TATATATATATATATATATATATATGAAAGTTTTATTCATCGGAGTCACCTAGTGCAG”, the binding signal was 13400 fluorescence intensity (a.u.).

As to “ATAATAATTGATAGGTAACCATGATTATCGATAAAACCATCGGAGTCACCTAGTGCAG”, the binding signal is 59000 fluorescence intensity (a.u.).

Take “AAAATCAATTAACATTTTAATTTTCCACCTTCCATACCTACGGAGTCACCTAGTGCAG”: the binding signal was 25400 fluorescence intensity (a.u.).

“GGTCTAAGTAAATTTAATTGTACTGTTCAAATTAATAATGCGGAGTCACCTAGTGCAG”: the binding signal was 8460 fluorescence intensity (a.u.).

Regarding “GCAATTGAGAATAATTTGATAGGGACCAAAGAAGACTACTCGGAGTCACCTAGTGCAG”, the binding signal was 13100 fluorescence intensity (a.u.).

With “GAAGTAGTTAAGGGTGATTTATGTCATCACAAGTAAACCTCGGAGTCACCTAGTGCAG”, the binding signal is 3800 fluorescence intensity (a.u.).

Regarding “ACACACCTAATTACATATTTGTTTTAATGTCCTGTGACAACGGAGTCACCTAGTGCAG”, the binding signal is 9500 fluorescence intensity (a.u.).

On to “TTGAAAATTAATTATAAATATTAAACGTGGACTATTAATACGGAGTCACCTAGTGCAG”, for which the binding signal is 13500 fluorescence intensity (a.u.).

Regarding “TCGTGATTAGAATCTTAATCTCTAGCCTGTCTTTGCTTGCCGGAGTCACCTAGTGCAG”, the binding signal is 56200 fluorescence intensity (a.u.).

Consider “AATAATTTAATAAAAGATATTATATGGAAAATGTTGCATGCGGAGTCACCTAGTGCAG”, for which the binding signal is 30400 fluorescence intensity (a.u.).

For “TATTAATCCATGATTTGCTACAGTAATGCTATAGTATCAGCGGAGTCACCTAGTGCAG”, the binding signal is 8160 fluorescence intensity (a.u.).

“GTTGATGGGAACTAGTATTCTAGAGTCGTTGCTTATATATCGGAGTCACCTAGTGCAG”: the binding signal is 4410 fluorescence intensity (a.u.).

Consider “TCCTTCGATTGATCAAATGACTGTTTGATTATGGAGTAGACGGAGTCACCTAGTGCAG”, for which the binding signal was 22900 fluorescence intensity (a.u.).

“CGGTTTTAATTAATTCGTTGGATTCAATCTTCGTTTAACTCGGAGTCACCTAGTGCAG”: the binding signal was 24500 fluorescence intensity (a.u.).

As to “TCTAATTAATTTGTCATTAGCAAATGTTTATTGTAGCATCCGGAGTCACCTAGTGCAG”, the binding signal was 58400 fluorescence intensity (a.u.).

As for “TTTAGATAATTAATATTTAAATAATTATACTCTCGTTTTGCGGAGTCACCTAGTGCAG”, the binding signal is 29600 fluorescence intensity (a.u.).

As to “CACATCCAAATTTGTAATAATATAACTTTAGTAGGATATCCGGAGTCACCTAGTGCAG”, the binding signal is 7770 fluorescence intensity (a.u.).

For the sequence “TAAGTGATTTTAGTTAGATGGGACACATCATATTATTATGCGGAGTCACCTAGTGCAG”, the binding signal is 9700 fluorescence intensity (a.u.).

As to “AATTTAATTCATCATTCTAATAATTTATTTACTGGATTCCCGGAGTCACCTAGTGCAG”, the binding signal was 7440 fluorescence intensity (a.u.).

In the case of “CCTACTTCTAGTCTGATTGATTTTAGCTATAAAATTGCTACGGAGTCACCTAGTGCAG”, the binding signal is 23300 fluorescence intensity (a.u.).

Regarding “GATCGACATGAAATTAATTAAAGCTAGCTATAGGGAGCAACGGAGTCACCTAGTGCAG”, the binding signal is 4550 fluorescence intensity (a.u.).

For “TTTATTGATTAAATAGAGTCATTACAATCTCGCAGAACAACGGAGTCACCTAGTGCAG”, the binding signal is 22200 fluorescence intensity (a.u.).

Regarding “GGAACGAAACAAGGCCTAATTGAGGATGCAAGAGAATCCTCGGAGTCACCTAGTGCAG”, the binding signal was 6590 fluorescence intensity (a.u.).

As to “AACCACTAATTATCGTATCATACGTCTTTATCGTATGCATCGGAGTCACCTAGTGCAG”, the binding signal is 27500 fluorescence intensity (a.u.).

As to “GGAAGATTACCCTGTTTACCACTCACTGTACGATGATTATCGGAGTCACCTAGTGCAG”, the binding signal was 4430 fluorescence intensity (a.u.).

For “AGCGCTAGATTGGCCATCGACCACATCACCAACAACTCTCCGGAGTCACCTAGTGCAG”, the binding signal is 13600 fluorescence intensity (a.u.).

Take “TTTTGATTGCACCTTGCTTCTCGTATACACCCTCACCTATCGGAGTCACCTAGTGCAG”: the binding signal is 22200 fluorescence intensity (a.u.).

For “ACTGAAATTAATATTAGGTGCAAGTAATTCCATTCTCGACCGGAGTCACCTAGTGCAG”, the binding signal was 6650 fluorescence intensity (a.u.).

In the case of “ATACCGTTGATTTTCCGTCTTTTCAAGCATGTGTTACGGGCGGAGTCACCTAGTGCAG”, the binding signal was 6990 fluorescence intensity (a.u.).

Consider “AAATTTATGTAATTATAATTTATTTTATTGTGACTTGATTCGGAGTCACCTAGTGCAG”, for which the binding signal was 15700 fluorescence intensity (a.u.).

Regarding “TCTCCTTCCAATCAAAATCTCCACTGCCAAAGCTATCTGTCGGAGTCACCTAGTGCAG”, the binding signal is 8190 fluorescence intensity (a.u.).

“CAAATTGATCCAGGAAGCCACGGGACGGCACGGATCTTTGCGGAGTCACCTAGTGCAG”: the binding signal was 5080 fluorescence intensity (a.u.).

Turning to “GATTAATTCAATCCTATAAATTATATCCCAATTTATAATTCGGAGTCACCTAGTGCAG”, the binding signal is 11600 fluorescence intensity (a.u.).

Consider “AGGAGATTGTTAAGTGGCCATCCCTTTCTTTCTAATTCCTCGGAGTCACCTAGTGCAG”, for which the binding signal was 3460 fluorescence intensity (a.u.).
